Measured values published in publication PMC4336329 (PLoS ONE, 2015).
Hit rate of the full screen: of about 310,000 compounds, about 14,000 (4.5%) showed an effect of 50% or more. Effects have a minus sign here. The list shows a part of the results.

biological target: human ether-à-go-go-related gene (hERG) potassium channel (human, UniProt Q12809); assay: primary screen, population patch clamp on CHO cells stably expressing hERG
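Note: peak tail current of the secondary pulse compared with the same well before compound.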

Chain of human ether-à-go-go-related gene (hERG) potassium channel (Q12809 whole entry, looked up): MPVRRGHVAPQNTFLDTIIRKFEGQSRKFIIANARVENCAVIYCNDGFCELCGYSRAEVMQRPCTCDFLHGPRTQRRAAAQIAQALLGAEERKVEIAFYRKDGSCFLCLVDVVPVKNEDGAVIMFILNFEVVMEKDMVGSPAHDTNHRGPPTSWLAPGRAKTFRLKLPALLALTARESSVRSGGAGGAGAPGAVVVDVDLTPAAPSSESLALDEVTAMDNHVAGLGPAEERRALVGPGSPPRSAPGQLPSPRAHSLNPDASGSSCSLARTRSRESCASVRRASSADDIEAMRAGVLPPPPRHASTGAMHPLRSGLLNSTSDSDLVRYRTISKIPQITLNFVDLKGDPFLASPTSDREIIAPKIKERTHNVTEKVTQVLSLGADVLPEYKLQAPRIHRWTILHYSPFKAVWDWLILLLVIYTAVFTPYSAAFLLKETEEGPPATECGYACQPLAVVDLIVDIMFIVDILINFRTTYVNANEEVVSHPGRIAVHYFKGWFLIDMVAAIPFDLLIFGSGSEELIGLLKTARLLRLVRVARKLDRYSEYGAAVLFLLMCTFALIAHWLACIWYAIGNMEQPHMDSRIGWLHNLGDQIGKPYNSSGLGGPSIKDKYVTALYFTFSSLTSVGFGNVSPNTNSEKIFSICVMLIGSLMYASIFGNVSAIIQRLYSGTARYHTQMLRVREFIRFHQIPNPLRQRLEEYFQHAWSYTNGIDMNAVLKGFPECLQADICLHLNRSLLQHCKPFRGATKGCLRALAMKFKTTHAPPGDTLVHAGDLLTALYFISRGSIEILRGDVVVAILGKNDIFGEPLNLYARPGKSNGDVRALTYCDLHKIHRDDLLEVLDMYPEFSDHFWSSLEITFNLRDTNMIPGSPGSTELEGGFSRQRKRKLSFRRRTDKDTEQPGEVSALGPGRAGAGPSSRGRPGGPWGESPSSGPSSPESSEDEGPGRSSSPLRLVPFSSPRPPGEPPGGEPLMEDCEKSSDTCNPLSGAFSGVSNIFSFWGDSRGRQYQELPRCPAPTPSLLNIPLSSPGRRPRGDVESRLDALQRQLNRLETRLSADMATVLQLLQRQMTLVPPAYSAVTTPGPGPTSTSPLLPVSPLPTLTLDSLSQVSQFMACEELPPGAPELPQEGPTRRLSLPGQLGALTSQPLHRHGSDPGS

SMILES	hERG current change (%, negative = inhibition) at 10uM
O=C(NCc1nnc(SCC(=O)N2CCCc3ccccc32)o1)c1ccco1	13.2%
CCc1cc(=O)oc2c3c(cc(OCC(=O)NCc4ccncc4)c12)OC(C)(C)CC3	-34.4%
O=C(CN1CCOCC1)Nc1ccccc1	13.8%
COc1cccc(OCc2nnc(SCC(=O)NNC(=O)C3CCCCC3)n2C)c1	24.5%
COc1ccc(-c2nc(NC(=O)c3ccc(OCC(=O)Nc4ccc(F)cc4)c(OC)c3)sc2C)cc1	11.7%
CC(=O)NS(=O)(=O)c1ccc(NC(=O)/C=C/c2cn(-c3ccccc3)nc2-c2ccccc2)cc1	34%
Cc1cc(C)n2nc(C(F)(F)F)c(-c3ccccc3)c2n1	-0.933%
CCN1CCN(Cc2nnc(-c3ccc(C)cc3)o2)CC1	1.66%
CC1(C)N=C(SCC(=O)Nc2ccc(Cl)cc2)C(c2ccccc2)=N1	-23.9%
C=CCNC(=O)COc1ccc(S(=O)(=O)N2CCCC2)cc1	-3.51%
O=C(Cc1ccccc1)NNC(=O)c1cnccn1	2.87%
C/C(=N/OC(=O)N(C)C)c1ncc(C(F)(F)F)cc1N1CCOCC1	9.39%
Cc1ccsc1CNC1C2CC3CC(C2)CC1C3.Cl (stereo not drawn)	-8.11%
O=C(Nc1ccc2c(c1)N(Cc1ccccc1)C(=O)c1ccccc1S2)NC1CC1	6.01%
Nc1ccc(C(=O)Nc2ccc(OC(F)(F)C(F)F)c(NC(=O)c3ccc(N)cc3)c2)cc1	5.35%
COc1ccccc1N1CCN(CCCNc2c(C)c(=O)n(C)c(=O)n2C)CC1	-5.42%
CCCSC1=C(C#N)C(c2cccnc2)C(C(=O)OCC)=C(c2ccccc2)N1 (stereo not drawn)	-16.5%
Cc1ccc(CNC(=O)c2cc(-c3ccccc3)nn2CC2CC(c3cccnc3)=NO2)cc1 (stereo not drawn)	-69.7%
Cc1ccc2cc(CN(Cc3ccco3)C(=O)C3CCCCC3)c(=O)[nH]c2c1C	3.51%
C/C=C/c1ccccc1OCc1ccc(C(=O)O)o1	20%
COc1ccc(C(=O)N2CCCC(c3nc(-c4cccs4)no3)C2)cc1 (stereo not drawn)	-22.4%
O=C(CNC(=O)[C@@H]1Cc2ccccc2CN1)NC1CCCCC1	13.1%
CCOc1ccc(NC(=O)C2CSC(c3ccncc3)=N2)cc1 (stereo not drawn)	-22.7%
COCCCN1CC(=O)N2Cc3[nH]c4ccccc4c3C[C@H]2C1=O	15.5%
